# Measurements as given in patent US20100099564A1, “HERBICIDE COMBINATION COMPRISING DIMETHOXYTRIAZINYL-SUBSTITUTED DIFLUOROMETHANESULFONYLANILIDES” (BAYER CROPSCIENCE AG, priority 2008, published 2010).
# At least one read-out could not be matched to a standard name with certainty.
# Experiments:
# Format in all cases: in vivo
# [1] = test system: Zea mays (ZEAMX); test: Post-emergence action, greenhouse pot test, visual scoring: ZEAMX
# Description: (§1) Seeds or rhizome pieces of mono- and dicotyledonous harmful and useful plants were placed in peat pots (diameter 4 cm) filled with sandy loam and then covered with soil. The pots were kept in a greenhouse under optimum conditions. In addition, harmful plants encountered in paddy rice cultivation were cultivated in pots with a water level 2 cm above the soil surface.
# (§2) About three weeks after the start of the cultivation, the test plants were treated at the 2- to 3-leaf stage. The herbicides, formulated as powder or liquid concentrates, were, either alone or in the combinations according to the invention, sprayed in various dosages on to the green parts of the plants using an application rate of 600 l of water/ha (converted). For further cultivation of the plants, the pots were then again kept under optimum conditions in a greenhouse.
# (§3) The visual scoring of the herbicidal effects was carried out in intervals up to 21 days after the treatment. Scoring was carried out in percent in comparison to the untreated control plants. 0%=no herbicidal activity, 100%=complete herbicidal activity=complete kill.
# (§4) The percentages from the treatments with the herbicides alone (=individual application) and with the combinations according to the invention (=mixtures) were employed to calculate interactions using the method of Colby. When the observed efficacies of the mixtures exceed the formal sum of the values of the tests with individual applications, they also exceed the expected value according to Colby, which is calculated using the formula below (cf. S. R. Colby; in Weeds 15 (1967) pp. 20 to 22):
# (§5) Here: • A, B=activity of components A and B in percent at a dosage of a and b g of ai/ha (=gramm of active substance per hectare), respectively. • E=expected value in % at a dosage of a+b g of ai/ha.
# (§6) The combinations according to the invention of herbicides from group (A) with herbicides from group (B) were tested on a broad spectrum of important harmful plants (weed grasses, broad-leaved weeds/Cyperaceae) and useful plants: Triticum aestivum (TRZAS), Stellaria media (STEME), Lolium multiflorum (LOLMU), Veronica persica (VERPE), Alopecurus myosuroides (ALOMY), Matricaria inodora (MATIN), Brassica napus (BRSNW), Viola tricolor (VIOTR), Avena fatua (AVEFA), Amaranthus retroflexus (AMARE), Zea mays (ZEAMX), Pharbitis purpurea (PHBPU), Setaria viridis (SETVI), Fallopia (ex Polygonum) convolvulus (POLCO), Echinochloa crusgaffi (ECHCG), Abuthilon theophrasti (ABUTH), Cyperus esculentus (CYPES), Oryza sativa (ORYSA).
# (§7) Of particular interest are the results shown in the tables (Tab.) below, where the following key is used: • (1) EPPO code (former Bayer code) for the treated plant (see above) • (2) Time of scoring: DAT (days after treatment) • (3) Component A tested (identifying number) • (4) Component B tested (identifying number) • (5) Dosage component A [g of ai/ha] • (6) Dosage component B [g of ai/ha] • (7) % activity found • (8) E value (calculated according to Colby; see above) • (9) Comments: “SYNERGY” =synergistic interaction (E value<% activity found); “SAFENING”=safener action on useful plant (E value>% activity found)
# [2] = test system: Alopecurus myosuroides (ALOMY); test: Post-emergence action, greenhouse pot test, visual scoring: ALOMY
# Description: as §1, §2, §3, §4, §5
# [3] = test system: Triticum aestivum (TRZAS); test: Post-emergence action, greenhouse pot test, visual scoring: TRZAS
# Description: as §1, §2, §3, §4, §5, §6, §7
# [4] = test system: Setaria viridis (SETVI); test: Post-emergence action, greenhouse pot test, visual scoring: SETVI
# Description: as §1, §2, §3, §4, §5, §6, §7
# [5] = test system: Oryza sativa (ORYSA); test: Post-emergence action, greenhouse pot test, visual scoring: ORYSA
# Description: as §1, §2, §3, §4, §5, §6, §7
smiles,measurement,setting,value
COc1nc(OC)nc(C(=O)c2cccc(F)c2N(C)S(=O)(=O)C(F)F)n1 [A-1],% activity found,"[1]; 10 DAT, dose (5) 4",0%
same,% activity found,"[1]; 10 DAT, dose (5) 12",0%
same,% activity found,"[1]; 21 DAT, dose (5) 12",0%
same,% activity found,"[2]; 10 DAT, dose (5) 12",40%
same,% activity found,"[2]; 21 DAT, dose (5) 4",40%
same,% activity found,"[2]; 21 DAT, dose (5) 12",50%
same,% activity found,"[3]; 10 DAT, dose (5) 4",0%
same,% activity found,"[3]; 10 DAT, dose (5) 12",0%
same,% activity found,"[3]; 21 DAT, dose (5) 4",0%
same,% activity found,"[3]; 21 DAT, dose (5) 12",0%
same,% activity found,"[4]; 21 DAT, dose (5) 4",0%
same,% activity found,"[4]; 21 DAT, dose (5) 12",20%
same,% activity found,"[5]; 21 DAT, dose (5) 4",0%
same,% activity found,"[5]; 21 DAT, dose (5) 12",10%
"CCCOCCN(C(=O)CCl)c1c(CC)cccc1CC [B4-8, 2-chloro-N-(2,6-diethylphenyl)-N-(2-propoxyethyl)acetamide]",% activity found,"[1]; 10 DAT, dose (6) 100",20%
same,% activity found,"[1]; 10 DAT, dose (6) 300",20%
same,% activity found,"[1]; 21 DAT, dose (6) 100",0%
same,% activity found,"[2]; 21 DAT, dose (6) 100",0%
same,% activity found,"[2]; 21 DAT, dose (6) 300",20%
same,% activity found,"[3]; 10 DAT, dose (6) 100",0%
same,% activity found,"[4]; 21 DAT, dose (6) 100",0%
same,% activity found,"[4]; 21 DAT, dose (6) 300",0%
same,% activity found,"[5]; 21 DAT, dose (6) 100",10%
same,% activity found,"[5]; 21 DAT, dose (6) 300",20%
"CCSC(=O)N1CCCCCC1 [B6-7, S-ethyl hexahydro-1H-azepine-1-carbothioate]",% activity found,"[1]; 10 DAT, dose (6) 300",10%
same,% activity found,"[1]; 10 DAT, dose (6) 900",20%
same,% activity found,"[2]; 21 DAT, dose (6) 300",0%
same,% activity found,"[2]; 21 DAT, dose (6) 900",10%
same,% activity found,"[3]; 10 DAT, dose (6) 300",0%
same,% activity found,"[3]; 10 DAT, dose (6) 900",10%
same,% activity found,"[4]; 10 DAT, dose (6) 300",0%
same,% activity found,"[4]; 10 DAT, dose (6) 900",0%
same,% activity found,"[4]; 21 DAT, dose (6) 300",0%
same,% activity found,"[4]; 21 DAT, dose (6) 900",0%
same,% activity found,"[5]; 10 DAT, dose (6) 300",0%
same,% activity found,"[5]; 21 DAT, dose (6) 300",10%
same,% activity found,"[5]; 21 DAT, dose (6) 900",10%
"COc1cc(OC)nc(NC(=O)NS(=O)(=O)Nc2ccccc2C(=O)C2CC2)n1 [B7-7, N-[[[2-(cyclopropylcarbonyl)phenyl]amino]sulfonyl]-N′-(4,6-dimethoxy-2-pyrimidinyl)urea]",% activity found,"[2]; 10 DAT, dose (6) 54",30%
same,% activity found,"[3]; 10 DAT, dose (6) 18",0%
same,% activity found,"[3]; 10 DAT, dose (6) 54",0%
